Measured values published in the supplement of paper PMC8728848.
Some of the results follow.

Assays:
Test in all cases: glycan array binding signal (z-score within array); higher = stronger binding
Settings in all cases: glycan notation: IUPAC condensed, linker removed
[1] = target: Gal(b1-3)GalNAc(b1-4)[Neu5Ac(a2-3)]Gal(b1-4)Glc
In short: (§1)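 Negative Z-scores can be read as non-binding. The Z-score is calculated within each array and then averaged across arrays of one protein sequence at different concentrations or buffers and across linkers. Arrays, 3228 in all, were curated from the Consortium for Functional Glycomics database and kept only where the protein sequence was available.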

Gal(b1-3)GlcNAc = target: Gal(b1-3)GlcNAc
In short: as §1

[2] = target: Gal(b1-3)GlcNAc(a1-6)Gal(b1-4)GlcNAc
In short: as §1

[3] = target: Gal(b1-3)GlcNAc(b1-2)Man(a1-3)[Gal(b1-3)GlcNAc(b1-2)Man(a1-6)]Man(b1-4)GlcNAc(b1-4)GlcNAc
In short: as §1

[4] = target: Gal(b1-3)GlcNAc(b1-2)Man(a1-3)[Gal(b1-3)GlcNAc(b1-2)Man(a1-6)]Man(b1-4)GlcNAc(b1-4)[Fuc(a1-6)]GlcNAc
In short: as §1

[5] = target: Gal(b1-3)GlcNAc(b1-2)[Gal(b1-3)GlcNAc(b1-6)]Man(a1-6)[Gal(b1-3)GlcNAc(b1-2)Man(a1-3)]Man(b1-4)GlcNAc(b1-4)GlcNAc
In short: as §1

[6] = target: Gal(b1-3)GlcNAc(b1-3)Gal(b1-3)GlcNAc
In short: as §1

[7] = target: Gal(b1-3)GlcNAc(b1-3)Gal(b1-4)Glc
In short: as §1

[8] = target: Gal(b1-3)GlcNAc(b1-3)Gal(b1-4)GlcNAc
In short: as §1

[9] = target: Gal(b1-3)GlcNAc(b1-3)Gal(b1-4)GlcNAc(b1-6)[Gal(b1-3)GlcNAc(b1-3)]Gal(b1-4)Glc
In short: as §1

[10] = target: Gal(b1-3)GlcNAc(b1-3)Gal(b1-4)[Fuc(a1-3)]GlcNAc(b1-6)[Gal(b1-3)GlcNAc(b1-3)]Gal(b1-4)Glc
In short: as §1

[11] = target: Gal(b1-3)GlcNAc(b1-3)GalNAc
In short: as §1

[12] = target: Gal(b1-3)GlcNAc(b1-6)Gal(b1-4)GlcNAc
In short: as §1

[13] = target: Gal(b1-3)[Fuc(a1-4)]GlcNAc
In short: as §1

[14] = target: Gal(b1-3)[Fuc(a1-4)]GlcNAc(b1-2)Man(a1-3)[Gal(b1-3)[Fuc(a1-4)]GlcNAc(b1-2)Man(a1-6)]Man(b1-4)GlcNAc(b1-4)GlcNAc
In short: as §1

[15] = target: Gal(b1-3)[Fuc(a1-4)]GlcNAc(b1-2)Man(a1-3)[Gal(b1-3)[Fuc(a1-4)]GlcNAc(b1-2)Man(a1-6)]Man(b1-4)GlcNAc(b1-4)[Fuc(a1-6)]GlcNAc
In short: as §1

[16] = target: Gal(b1-3)[Fuc(a1-4)]GlcNAc(b1-3)Gal(b1-3)[Fuc(a1-4)]GlcNAc
In short: as §1

[17] = target: Gal(b1-3)[Fuc(a1-4)]GlcNAc(b1-3)Gal(b1-4)GlcNAc
In short: as §1

[18] = target: Gal(b1-3)[Fuc(a1-4)]GlcNAc(b1-3)Gal(b1-4)[Fuc(a1-3)]GlcNAc
In short: as §1

[19] = target: Gal(b1-3)[GlcNAc(b1-6)]GalNAc
In short: as §1

[20] = target: Gal(b1-3)[Neu5Ac(a2-6)]GalNAc
In short: as §1

[21] = target: Gal(b1-3)[Neu5Ac(a2-6)]GlcNAc(b1-6)Gal(b1-4)Glc
In short: as §1

[22] = target: Gal(b1-3)[Neu5Ac(b2-6)]GalNAc
In short: as §1

Gal(b1-4)Gal = target: Gal(b1-4)Gal
In short: as §1

[23] = target: Gal(b1-4)GalNAc(a1-3)[Fuc(a1-2)]Gal(b1-4)GlcNAc
In short: as §1

[24] = target: Gal(b1-4)GalNAc(b1-3)[Fuc(a1-2)]Gal(b1-4)GlcNAc
In short: as §1

Gal(b1-4)Glc = target: Gal(b1-4)Glc
In short: as §1

Gal(b1-4)Glc6S = target: Gal(b1-4)Glc6S
In short: as §1

Gal(b1-4)GlcNAc = target: Gal(b1-4)GlcNAc
In short: as §1

[25] = target: Gal(b1-4)GlcNAc(a1-6)Gal(b1-4)GlcNAc
In short: as §1

[26] = target: Gal(b1-4)GlcNAc(b1-2)Man(a1-3)Man(b1-4)GlcNAc(b1-4)GlcNAc
In short: as §1

[27] = target: Gal(b1-4)GlcNAc(b1-2)Man(a1-3)[Gal(b1-4)GlcNAc(b1-2)Man(a1-6)]Man(b1-4)GlcNAc(b1-4)GlcNAc
In short: as §1

[28] = target: Gal(b1-4)GlcNAc(b1-2)Man(a1-3)[Gal(b1-4)GlcNAc(b1-2)Man(a1-6)]Man(b1-4)GlcNAc(b1-4)[Fuc(a1-6)]GlcNAc
In short: as §1

[29] = target: Gal(b1-4)GlcNAc(b1-2)Man(a1-3)[Gal(b1-4)GlcNAc(b1-2)][GlcNAc(b1-4)]Man(b1-4)GlcNAc(b1-4)GlcNAc
In short: as §1

[30] = target: Gal(b1-4)GlcNAc(b1-2)Man(a1-3)[GlcNAc(b1-2)Man(a1-6)]Man(b1-4)GlcNAc(b1-4)GlcNAc
In short: as §1

[31] = target: Gal(b1-4)GlcNAc(b1-2)Man(a1-3)[Man(a1-6)]Man(b1-4)GlcNAc(b1-4)GlcNAc
In short: as §1

[32] = target: Gal(b1-4)GlcNAc(b1-2)Man(a1-6)Man(b1-4)GlcNAc(b1-4)GlcNAc
In short: as §1

[33] = target: Gal(b1-4)GlcNAc(b1-2)Man(a1-6)[GlcNAc(b1-2)Man(a1-3)]Man(b1-4)GlcNAc(b1-4)GlcNAc
In short: as §1

B1: LSectin (Mus musculus), Q8BNX1 (protein)
chain: MNTGEYNKLGSAIEEVSRGQLGRWECYKQRLFFLVLALLVATVLWALILSTLLSSASSKLRVLLSHQDLLRTNASEQKMTLSSLKDDIGACRNCCSVTKAQLQTTLAEFKDIQAKLMEQESILKELQERVTQDLAKASRDRENIRSELFQALEAVKRQNSSCEQCPPSWLPFQGSCYYFSETQATWDTAQSYCGGQGAHLVIVRGLNEQGFLSQHTRGRGYWLGLRAVRHLNKIQGYRWVDGASLNFSHWNSGEPNDSRGHEDCIMMLHSGLWNDAPCTNERDGWICEKRSSCY
glycan array binding signal (z-score) [1]: -0.165
glycan array binding signal (z-score) (Gal(b1-3)GlcNAc): -0.132
glycan array binding signal (z-score) [2]: -0.188
glycan array binding signal (z-score) [3]: 0.382
glycan array binding signal (z-score) [4]: 0.186
glycan array binding signal (z-score) [5]: 0.121
glycan array binding signal (z-score) [6]: -0.18
glycan array binding signal (z-score) [7]: -0.172
glycan array binding signal (z-score) [8]: -0.175
glycan array binding signal (z-score) [9]: -0.185
glycan array binding signal (z-score) [10]: -0.177
glycan array binding signal (z-score) [11]: -0.18
glycan array binding signal (z-score) [12]: -0.178
glycan array binding signal (z-score) [13]: -0.164
glycan array binding signal (z-score) [14]: -0.166
glycan array binding signal (z-score) [15]: -0.183
glycan array binding signal (z-score) [16]: -0.172
glycan array binding signal (z-score) [17]: -0.176
glycan array binding signal (z-score) [18]: -0.174
glycan array binding signal (z-score) [19]: -0.172
glycan array binding signal (z-score) [20]: -0.165
glycan array binding signal (z-score) [21]: -0.162
glycan array binding signal (z-score) [22]: -0.191
glycan array binding signal (z-score) (Gal(b1-4)Gal): -0.179
glycan array binding signal (z-score) [23]: -0.169
glycan array binding signal (z-score) [24]: -0.159
glycan array binding signal (z-score) (Gal(b1-4)Glc): -0.18
glycan array binding signal (z-score) (Gal(b1-4)Glc6S): -0.144
glycan array binding signal (z-score) (Gal(b1-4)GlcNAc): -0.144
glycan array binding signal (z-score) [25]: -0.143
glycan array binding signal (z-score) [26]: -0.177
glycan array binding signal (z-score) [27]: -0.167
glycan array binding signal (z-score) [28]: -0.168
glycan array binding signal (z-score) [29]: -0.172
glycan array binding signal (z-score) [30]: 1.57
glycan array binding signal (z-score) [31]: -0.189
glycan array binding signal (z-score) [32]: -0.188
glycan array binding signal (z-score) [33]: 4.08
